# Reference: article PMC6919601, “Identification of Plasmodium dipeptidyl aminopeptidase allosteric inhibitors by high throughput screening” (PLoS ONE, 2019)
# Values joined by “and” are separate entries in the source; they are usually repeats but may differ in a detail not shown here. Equal entries are not always repeated. The campaign covered roughly 110,000 compounds. About 230 (0.21%) showed an effect of 50% or more. The list shows a part of the results.
# Target: DPAP1 (Plasmodium falciparum, UniProt Q8IIJ9)
# Sequence (Q8IIJ9 whole entry, looked up): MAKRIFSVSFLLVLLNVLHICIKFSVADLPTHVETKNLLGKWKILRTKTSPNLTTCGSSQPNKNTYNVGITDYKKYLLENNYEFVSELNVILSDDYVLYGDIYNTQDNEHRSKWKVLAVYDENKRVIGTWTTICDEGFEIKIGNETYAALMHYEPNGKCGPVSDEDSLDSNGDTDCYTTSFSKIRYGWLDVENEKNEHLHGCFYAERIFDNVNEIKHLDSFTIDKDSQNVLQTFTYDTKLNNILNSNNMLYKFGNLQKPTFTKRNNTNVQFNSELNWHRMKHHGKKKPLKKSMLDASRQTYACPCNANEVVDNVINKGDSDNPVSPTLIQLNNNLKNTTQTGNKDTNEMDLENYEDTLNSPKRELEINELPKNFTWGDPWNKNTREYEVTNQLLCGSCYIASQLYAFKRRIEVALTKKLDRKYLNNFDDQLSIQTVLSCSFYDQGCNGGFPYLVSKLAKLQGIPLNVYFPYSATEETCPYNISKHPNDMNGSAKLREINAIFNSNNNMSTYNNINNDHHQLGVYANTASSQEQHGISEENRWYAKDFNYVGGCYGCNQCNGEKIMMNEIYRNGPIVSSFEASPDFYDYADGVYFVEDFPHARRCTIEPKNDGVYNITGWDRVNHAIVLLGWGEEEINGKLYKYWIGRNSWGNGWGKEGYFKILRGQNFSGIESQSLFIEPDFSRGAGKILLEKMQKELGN
# Experiment: primary screen, percent inhibition; read by cleavage of a fluorogenic dipeptide substrate; higher = more effect of the substance
# Set-up: species or system P. falciparum D10 trophozoite lysates; single well
# 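Further: 30 min substrate incubation versus DMSO and 10 µM JCP410 controls.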
row,Structure (SMILES),% Inhibition @ 10 uM
1,CC1(C)Cc2nc3ccccc3c(NCc3ccccc3)c2C(O)C1 (centres unmarked),5%
2,CCCCSC1=C(C#N)C(=O)NC(c2ccc(OC)c(OC)c2)S1 (centres unmarked),1.72%
3,CCn1ncc(C(=O)Nc2ccc(S(=O)(=O)N3CCCC3)cc2)c1C,-0.63%
4,Cc1ccc(OCCCCCN2CCCCC2)cc1C,1.35%
5,COCCC/N=C/c1c(C)nn(-c2ccc(Cl)cc2)c1O,3.39%
6,N#CC1=C(N)C(C#N)(C#N)C(c2ccco2)C2CCCC=C12 (centres unmarked),-2.37%
7,CCCc1[nH]nc2c1C(c1ccc(Br)s1)C(C#N)=C(N)O2 (centres unmarked),-2.16%
8,COc1ccc(Cn2c(-c3ccc(OC)cc3)nc3ccccc32)cc1,2.41%
9,COc1cc(-n2c(C)nc3cc(C(=O)NCC4CCCO4)ccc32)cc(OC)c1OC (centres unmarked),-2.17%
10,CN1C(=O)c2ccccc2C(O)c2ccccc21 (centres unmarked),-3.97%
11,CN(Cc1ccccc1)C(=O)CNS(=O)(=O)c1cccs1,0.287%
12,O=C(O)COCC(=O)NCCOc1ccccc1,-2.19%
13,COc1cc(C)c(S(=O)(=O)n2ccc(C)n2)cc1C,-4.62%
14,CN1C2CCC1CC(NCCc1ccccc1)C2 (centres unmarked),0.986% and 3%
15,O=C1N=C(N2CCOCC2)S/C1=C\c1ccccc1Cl,3.72%
16,COc1cccc(-c2nc(O)c3c(n2)Oc2ccc(Cl)cc2C3)c1O,6.98%
17,Cc1nn(CC(=O)NC(C)CCc2ccccc2)c(=O)c2cc3cc(F)ccc3n12 (centres unmarked),7.81%
18,CCCCC(=O)Nc1nn(C)c2nc(C)cc(C)c12,13.4%
19,Cc1cc(C)cc(OCCNC(=O)C(C(C)C)N2C(=O)c3ccccc3C2=O)c1 (centres unmarked),2.38%
20,CCCOc1ccc(-c2cn3ccccc3n2)cc1,0.964%
21,Cc1ccc(CNC(=O)CCC(=O)n2ncc3c(C)cccc32)cc1,3.29%
22,Cc1ccc(S(=O)(=O)Cc2nc3ccccc3s2)cc1,-6.07%

row,Structure (SMILES),% Inhibition @ 10 uM
1,O=C(Nc1ccccc1C(=O)NO)c1cccnc1,2.41%
2,Cc1ccc(Oc2nc3c(C)cccn3c(=O)c2/C=C(\C#N)C(=O)N2CCCCC2)cc1,3.63%
3,O=C(CSc1ccc2nnc(-c3cccc(F)c3)n2n1)NCc1ccccc1,5.09%
4,CCn1c(SCC(=O)c2ccc(OC)cc2)nc2sc(C)c(C)c2c1=O,-2.53%
5,CC(=O)NCCNc1nc2c(S(=O)(=O)c3ccc(C)cc3)nnn2c2ccccc12,-1.37%
6,O=C1C2(c3ccccc3)CN3CC1(c1ccccc1)CN(C2)C3c1cccnc1 (centres unmarked),-1.47%
7,CCCCCSc1nc(N2CCOCC2)c2c(c1C#N)CCCC2,-4.7%
8,CCOc1ccccc1NC(=O)CN(c1cc(C)ccc1C)S(=O)(=O)c1ccccc1,3.66%
9,O=C(NCc1ccccc1)c1cc2ccccc2s1,-6.44%
10,COc1cccc(C2=NOC(C(=O)NCc3ccc(F)cc3)C2)c1OC (centres unmarked),-2.16%
11,O=[N+]([O-])c1ccccc1S(=O)(=O)NC1CCCC1,-0.999%
12,O=C1c2ccccc2C(=O)N1CCOc1cccc(Cl)c1,-10.2%
13,COc1ccc(NC(=O)c2c(NCc3cccs3)sc3c2CCC3)c(OC)c1,1.71%
14,C=CCc1c(C)nc2nc(SCC(=O)NCc3ccccc3)nn2c1C,-7.85%
15,CCc1nc(C)cc(CN(C)C)c1O,-6.52%
16,O=C(NCCc1nc(-c2ccccc2)cs1)C1(c2ccccc2)CC1,0.503%
17,Cn1c(=O)c2c(nc(O)n2Cc2ccc(Cl)cc2Cl)n(C)c1=O,3.27%
18,CCn1c(Oc2ccc(Oc3ncc(Cl)cc3Cl)cc2)nc2c1c(=O)n(C)c(=O)n2C,-4.91%
19,Cn1nc(-c2ccc(C(F)(F)F)cc2)nc2c(=O)n(C)c(=O)nc1-2,0.569%
20,CC(=O)N1N=C(C)CC1c1ccc(OCc2ccccc2)cc1 (centres unmarked),10.9%
21,CC1(C)Cc2nc3sc4c(NCC5CCCO5)ncnc4c3cc2CO1 (centres unmarked),2.56%
22,Cc1cc(O)n2ncc(C(=O)O)c2n1,0.635%

row,Structure (SMILES),% Inhibition @ 10 uM
1,COc1ccc(CCNC(=O)CCn2c(=O)c3cccn3c3cccnc32)c(OC)c1,0.951%
2,Cc1ccc(-c2csc(NC(=O)c3ccc4c(c3)OCO4)n2)cc1,-3.75%
3,CC(CNC(=O)c1cnc(N2CCCC2)nc1)c1ccccc1 (centres unmarked),0.44%
4,Cc1cc(C)cc(NC(=O)CN(c2cccc(C(F)(F)F)c2)S(C)(=O)=O)c1,-1.65%
5,COc1ccc(CNC(=O)CN(c2ccc(OC)c(Cl)c2)S(C)(=O)=O)cc1,2.6%
6,O=C(COc1ccccc1F)N1CCc2ccccc2C1,4.33%
7,COc1ccc(C(=O)Nc2ccc(-c3noc(-c4ccc(F)cc4)n3)cc2)cc1,-7.62%
8,COCc1cc(C)nc(SCC(=O)Nc2cc(C)c(C)cc2Br)c1C#N,-2.24%
9,COc1ccc2nc3sc(C(=O)NCCCN4CCc5ccccc5C4)cc3cc2c1,64.7%
10,O=[N+]([O-])c1cc(C(F)(F)F)ccc1-n1cncn1,2.47%
11,O=C(COc1ccc(S(=O)(=O)NCc2ccccc2)cc1)Nc1ccc(Cl)c(Cl)c1,-2.29%
12,Oc1ccccc1C1CC(c2ccccc2)=NN1 (centres unmarked),-0.424%
13,CC(=O)N(CCCN(C)C)c1nc2cc3c(cc2s1)OCO3,-1.07%
14,CCN(CCCNC(=O)c1ccc2nc(N3CCCCC3)sc2c1)Cc1ccccc1,1.03%
15,O/C(=C\c1nc2nonc2nc1O)c1ccc(Cl)cc1,2.97%
16,COc1cccc(C2CC3=Nc4ccccc4N(C(C)=O)C(c4ccc(F)cc4)C3=C(O)C2)c1 (centres unmarked),-4.12%
17,COc1cccc(C2CC(=O)N=C(NC(=O)c3ccc(Oc4ccccc4)cc3)N2)c1OC (centres unmarked),1.66%
18,CCOC(=O)C1=C(C)N=c2s/c(=C\c3ccc4c(c3)OCO4)c(=O)n2C1c1ccccc1F (centres unmarked),3.62%
19,CN(CC(=O)Nc1nnc(S)s1)S(=O)(=O)c1cccc2cccnc12,28.4%
20,CC(c1ccccc1)C1OCC(CN2CCCCC2)O1 (centres unmarked),-2.18%
21,Cc1ccc(N(CC(=O)NCC2CCCO2)S(C)(=O)=O)cc1C (centres unmarked),-3.37%
